Measured values reported in PMC5650406.
These are yes or no findings as the source states them, for the method shown. In cells and extracts the contact can be indirect. Some binding calls cover weakened binding; strength is not graded here. For some of these results: Tags and fused reporters may be left off the sequences shown.

Amino acid sequences for entries named in this document (tags omitted).
UniProt Q96RU2: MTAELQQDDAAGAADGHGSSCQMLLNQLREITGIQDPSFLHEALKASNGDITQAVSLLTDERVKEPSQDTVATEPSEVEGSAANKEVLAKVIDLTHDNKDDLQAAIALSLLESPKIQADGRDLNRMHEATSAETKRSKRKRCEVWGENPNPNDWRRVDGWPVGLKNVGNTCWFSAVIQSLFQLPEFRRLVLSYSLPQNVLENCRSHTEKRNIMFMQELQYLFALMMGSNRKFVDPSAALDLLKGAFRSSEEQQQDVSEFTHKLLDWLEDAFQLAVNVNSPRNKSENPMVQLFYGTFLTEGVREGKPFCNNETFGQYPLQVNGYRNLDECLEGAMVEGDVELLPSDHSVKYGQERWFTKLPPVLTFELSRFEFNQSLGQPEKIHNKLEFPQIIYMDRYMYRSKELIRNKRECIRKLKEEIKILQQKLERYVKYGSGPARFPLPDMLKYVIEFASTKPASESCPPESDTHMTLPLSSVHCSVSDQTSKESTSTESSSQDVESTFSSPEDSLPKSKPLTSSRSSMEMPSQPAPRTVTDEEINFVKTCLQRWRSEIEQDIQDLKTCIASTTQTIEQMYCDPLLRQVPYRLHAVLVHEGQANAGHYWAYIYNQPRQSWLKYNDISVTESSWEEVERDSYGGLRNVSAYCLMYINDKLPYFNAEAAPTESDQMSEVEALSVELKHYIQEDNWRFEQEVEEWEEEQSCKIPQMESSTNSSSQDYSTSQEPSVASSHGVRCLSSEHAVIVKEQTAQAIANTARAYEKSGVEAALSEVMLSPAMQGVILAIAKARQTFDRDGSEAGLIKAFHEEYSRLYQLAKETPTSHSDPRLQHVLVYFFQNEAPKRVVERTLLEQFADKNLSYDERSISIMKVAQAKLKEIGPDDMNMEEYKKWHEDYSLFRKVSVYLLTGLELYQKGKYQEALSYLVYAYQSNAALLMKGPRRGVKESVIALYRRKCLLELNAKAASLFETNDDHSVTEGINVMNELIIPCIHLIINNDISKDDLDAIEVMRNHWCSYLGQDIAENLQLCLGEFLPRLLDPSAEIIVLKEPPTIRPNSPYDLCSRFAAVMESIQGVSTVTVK
UniProt Q15672: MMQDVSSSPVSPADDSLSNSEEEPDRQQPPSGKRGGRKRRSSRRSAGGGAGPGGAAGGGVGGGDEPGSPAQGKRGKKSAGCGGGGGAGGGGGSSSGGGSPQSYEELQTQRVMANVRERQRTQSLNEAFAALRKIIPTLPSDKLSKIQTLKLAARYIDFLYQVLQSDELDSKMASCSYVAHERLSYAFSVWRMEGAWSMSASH

Columns and labels:
Flag-tagged Dub3 = molecular target: T1, Flag-tagged Dub3 (UniProt Q6R6M4); assay: co-IP; tagged proteins co-expressed in HEK293 cells; IP with Myc, HA or Flag antibody, western blot; IP buffer 50 mM Tris pH 7.5, 150 mM NaCl, 1% NP-40, 1 mM EDTA, 0.25% deoxycholate; overnight at 4°C
T1 sequence: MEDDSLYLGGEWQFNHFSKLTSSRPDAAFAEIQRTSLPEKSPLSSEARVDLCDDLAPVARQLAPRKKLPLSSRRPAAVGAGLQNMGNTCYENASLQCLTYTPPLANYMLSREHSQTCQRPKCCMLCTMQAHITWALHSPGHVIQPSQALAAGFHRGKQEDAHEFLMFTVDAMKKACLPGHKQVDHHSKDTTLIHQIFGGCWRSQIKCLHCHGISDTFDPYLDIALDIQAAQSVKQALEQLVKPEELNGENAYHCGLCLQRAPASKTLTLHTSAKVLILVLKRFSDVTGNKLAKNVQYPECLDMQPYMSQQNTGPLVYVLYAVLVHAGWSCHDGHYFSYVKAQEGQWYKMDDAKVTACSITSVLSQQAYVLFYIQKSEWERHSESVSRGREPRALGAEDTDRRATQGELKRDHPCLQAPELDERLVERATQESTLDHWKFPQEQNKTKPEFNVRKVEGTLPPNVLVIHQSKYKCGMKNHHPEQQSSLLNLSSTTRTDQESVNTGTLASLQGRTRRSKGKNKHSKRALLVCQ

Myc-Dub3 = molecular target: T2, Myc-Dub3 (UniProt Q6R6M4); assay: as above
T2 sequence: T1 sequence

Flag-tagged USP28 = Flag-tagged USP28 (UniProt Q96RU2); assay: as above
[1] = molecular target: T3, Endogenous Dub3 (human (endogenous in MDA-MB157 and SUM159)) (UniProt Q6R6M4); assay: co-IP; endogenous proteins immunoprecipitated from MDA-MB157 and SUM159 cells, western blot
T3 sequence: T1 sequence

HA-tagged USP28 = HA-tagged USP28 (UniProt Q96RU2); assay: co-IP; tagged proteins co-expressed in HEK293 cells; IP with Myc, HA or Flag antibody, western blot; IP buffer 50 mM Tris pH 7.5, 150 mM NaCl, 1% NP-40, 1 mM EDTA, 0.25% deoxycholate; overnight at 4°C
HA-tagged Dub3 = molecular target: T4, HA-tagged Dub3 (UniProt Q6R6M4); assay: as above
T4 sequence: T1 sequence

HA-tagged Twist = HA-tagged Twist (UniProt Q15672); assay: as above
Flag-tagged Slug = molecular target: T5, Flag-tagged Slug (UniProt O43623); assay: as above
T5 sequence: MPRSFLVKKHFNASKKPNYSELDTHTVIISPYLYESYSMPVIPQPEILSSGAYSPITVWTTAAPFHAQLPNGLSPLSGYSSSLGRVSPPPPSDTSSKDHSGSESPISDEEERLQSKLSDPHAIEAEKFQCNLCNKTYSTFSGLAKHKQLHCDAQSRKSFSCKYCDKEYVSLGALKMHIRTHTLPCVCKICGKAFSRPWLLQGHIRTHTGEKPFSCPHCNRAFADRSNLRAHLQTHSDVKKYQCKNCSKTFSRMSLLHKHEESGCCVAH

In the case of “HA-tagged Twist (from UniProt Q15672 1-202)”, the binding (Flag-tagged Dub3) is reported as “binds”, the binding (Myc-Dub3) is reported as “binds” and the binding (Flag-tagged USP28) is reported as “no binding”.

“Endogenous Twist (from UniProt Q15672 1-202)” was tested, and the binding [1] was “binds”.

B1: Flag-tagged Slug (protein, UniProt O43623 1-268)
chain: T5 sequence
With B1 the binding (HA-tagged USP28) was “no binding”, the binding (HA-tagged Dub3) was “binds” and the binding (Myc-Dub3) was “binds”.

B2: Myc-Dub3 (enzyme, UniProt Q6R6M4 1-530)
chain: T1 sequence
B2 was tested, and the binding (HA-tagged Twist) was “binds” and the binding (Flag-tagged Slug) was “binds”.

B3: Endogenous Slug (protein, UniProt O43623 1-268)
chain: T5 sequence
B3 was tested, and the binding [1] was “binds”.
